# From PubChem BioAssay (Tox21)
# Several values for one entry are separate records, joined by “and”; a condition that tells them apart may be missing. Equal values may be shown once. The inconclusive results got no clear call from the source; some entries with a clear call stand among them for comparison. A potency beside an inconclusive call is a rough fit, not a confirmed value. Activity calls are given as the source filed them. Calls come from the whole dose curve; as a rule, active = well fitted cell-killing curve with a large enough effect in the repeat runs; inconclusive = weak or mixed curves, or effect the other way; inactive = flat fitted curve, though single readings scatter.
# Test: qHTS assay to identify small molecule agonists of the androgen receptor (AR) signaling pathway in the presence of an antagonist - cell viability counter screen (AID 1259379); note: nearly all actives have a fitted effect of over 25% in size;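 for activity change, negative = cytotoxicity: MDA-kb2 human breast cancer cells carrying an MMTV luciferase reporter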
# Conditions: MDA-kb2 viability, CellTiter-Fluor, 16 h; series mostly up to 92.4 µM; activity change, negative = cytotoxicity: at the top concentration
# Summary of the method: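 Cytotoxicity is assessed by CellTiter-Fluor in MDA-kb2 cells carrying an MMTV-driven luciferase reporter. Cells receive 3.0uM nilutamide plus compounds at 15 concentrations and incubate 16 hr at 37C without CO2 before fluorescence reading.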
# % is set by controls: 0 for no effect and ±100 for the full control effect; potency is the fitted concentration of half-maximal effect; tags give direction and shape of the fitted curve.
SMILES,Potency,"activity change, negative = cytotoxicity"
C=C1CC[C@H](O)CC1=C/C=C1\CCC[C@]2(C)[C@@H]([C@H](C)/C=C/[C@H](C)C(C)C)CC[C@@H]12,"inconclusive: 68.6 µM [cytotoxic, single point]",–
CC(C)C(=O)Nc1ccc([N+](=O)[O-])c(C(F)(F)F)c1,"inconclusive: 70.5 µM [cytotoxic, single point] and inconclusive: 48.6 µM [cytotoxic, partial curve] and inconclusive: 33.5 µM [cytotoxic, single point]",–
Cc1ccc(S(=O)(=O)C(I)I)cc1,active: 68.6 µM,–
O=S(=O)(c1ccc(OCc2ccccc2)cc1)c1ccccc1O,"inconclusive: 68.6 µM [cytotoxic, single point]",–
CCCOCC(C)OCC(C)O (stereo not given),–,inactive: -1.81%
Cc1cc2nc3ccc(=[N+](C)C)cc-3sc2cc1N,active: 3.76 µM,–
O=C(C(Cl)Cl)N1CCOC12CCCCC2,inconclusive: 61.1 µM [cytotoxic],–
COC(=O)C1=C(C)NC(C)=C(C(=O)OC(C)(C)CN(C)CCC(c2ccccc2)c2ccccc2)C1c1cccc([N+](=O)[O-])c1 (stereo not given),"inconclusive: 33.5 µM [cytotoxic, single point]",–
Brc1nc2ccccc2s1,inactive,–
CCN(CC)c1ccc2c(-c3ccccc3C(=O)O)c3ccc(=[N+](CC)CC)cc-3oc2c1,active: 9.69 µM,–
COc1ccc(-c2cc(=S)ss2)cc1,"inconclusive: 23.7 µM [cytotoxic, partial curve]",–
CCOC(=O)c1ccc(C2CCC(NC[C@H](O)COc3ccc(O)c(NS(C)(=O)=O)c3)CC2)cc1 (stereo not given in full),"inconclusive: 25.2 µM [cytotoxic, single point]",–
Cc1nccn1-c1ccc(Sc2cccc(C3(C(N)=O)CCOCC3)c2)cc1,active: 8.63 µM,–
CCC(=O)c1ccc2c(c1)N(CCCN(C)C)c1ccccc1S2,inconclusive: 33.5 µM [cytotoxic],–
CN(C)Cc1cc(C(C)(C)C)c(O)c(C(C)(C)C)c1,"inconclusive: 54.5 µM [cytotoxic, partial curve, poor fit]",–
COc1ccc(CCO)cc1,–,inactive: 1.69%
O=C1C=CC(=O)N1c1cccc(N2C(=O)C=CC2=O)c1,"inconclusive: 68.6 µM [cytotoxic, single point]",–
CN1CCCCC1CCN1c2ccccc2Sc2ccc(S(C)=O)cc21 (stereo not given),"inconclusive: 18.8 µM [cytotoxic, partial curve, poor fit]",–

SMILES,Potency,"activity change, negative = cytotoxicity"
O=C1[C@H]2CCCC[C@H]2C(=O)N1CCCCN1CCN(c2nsc3ccccc23)CC1,"inconclusive: 26.6 µM [cytotoxic, partial curve]",–
COc1ccc(-c2coc3cc(O)cc(O)c3c2=O)cc1,inconclusive: 69.1 µM [cytotoxic],–
Cc1ccc(Cl)cc1N,–,inactive: 0.769%
CCC(CN)=C(c1ccccc1)c1ccccc1,"inconclusive: 33.5 µM [cytotoxic, single point]",–
CC/C=C\C/C=C\C/C=C\CCCCCCCC(=O)OC,inconclusive: 68.6 µM [cytotoxic],–
Nc1ccc2c(O)cc(S(=O)(=O)O)cc2c1,"inconclusive: 9.69 µM [cytotoxic, partial curve]",–
c1csc(SSc2cccs2)c1,"inconclusive: 54.5 µM [cytotoxic, single point]",–
Oc1c(Cl)cc(Cl)c(Cl)c1Cl,"inconclusive: 59.8 µM [cytotoxic, partial curve, poor fit]",–
Fc1ccc(C(c2ccc(F)cc2)N2CCN(C/C=C/c3ccccc3)CC2)cc1,"inconclusive: 33.5 µM [cytotoxic, single point]",–
O=C(N[C@@H](c1ccccc1)[C@@H]1CCCCN1)c1cccc(C(F)(F)F)c1Cl,active: 17.2 µM,–
CCc1nn(CCCN2CCN(c3cccc(Cl)c3)CC2)c(=O)n1CCOc1ccccc1,active: 29.8 µM,–
O=C(/C=C/c1ccc([N+](=O)[O-])cc1)c1ccccc1,"inconclusive: 68.7 µM [cytotoxic, single point]",–
O=C1c2ccccc2C(=O)c2c(O)ccc(O)c21,"inconclusive: 27.3 µM [cytotoxic, partial curve]",–
O=c1c(-c2ccccc2)c1-c1ccccc1,inconclusive: 26.6 µM [cytotoxic],–
O=C(Oc1ccccc1)c1ccccc1C(=O)Oc1ccccc1,"inconclusive: 68.6 µM [cytotoxic, partial curve, poor fit]",–
Nc1c(S(=O)(=O)O)cc(Br)c2c1C(=O)c1ccccc1C2=O,"inconclusive: 35.2 µM [cytotoxic, partial curve] and active: 27.3 µM",–
COC(=O)c1ccccc1O,inactive,–
